# Reference: the supplement of paper PMC4604168 (melanoma cell lines)
# This is one part of the list. Many values rest on one well or one pass, so single values are uncertain.
# How the values were obtained:
# Assay in all cases: cell count relative to DMSO control; melanoma cells; higher = more viable cells
# Settings in all cases: library dose: standard library concentration; 72 h
# SkMel28 = system: SkMel28
# SkMel2 = system: SkMel2
# SkMel30 = system: SkMel30
# SkMel5 = system: SkMel5
# UACC257 = system: UACC257
# UACC62 = system: UACC62
# WM115 = system: WM115
# WM1716 = system: WM1716
# WM3526 = system: WM3526
# WM1745 = system: WM1745
# 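Also: cells treated in 1,536-well plates, then fixed and DAPI-stained, with nuclei counted from automated high-throughput microscope images.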
Structure (SMILES),cell count (SkMel28),cell count (SkMel2),cell count (SkMel30),cell count (SkMel5),cell count (UACC257),cell count (UACC62),cell count (WM115),cell count (WM1716),cell count (WM3526),cell count (WM1745)
"Cn1c(=O)n(-c2ccc(C(C)(C)C#N)cc2)c2c3cc(-c4cnc5ccccc5c4)ccc3ncc21 + O=C1NC(=O)/C(=C/c2ccc(-c3ccc(F)cc3O)o2)S1 [AS252424] (first compound 0.02 µM, partner dose 5 µM)",58.6%,67.6%,71.2%,70.7%,102%,71.5%,86.5%,78%,74.5%,
"Cc1cn(-c2cc(NC(=O)c3ccc(C)c(Nc4nccc(-c5cccnc5)n4)c3)cc(C(F)(F)F)c2)cn1 [nilotinib] + CCCCCCCCCCCC1=C(O)C(=O)C=C(O)C1=O [Embelin] (first compound 1 µM, partner dose 6 µM)",96.3%,70.9%,103%,84.9%,95.2%,82%,92.6%,70%,84.7%,
"COc1ccc(C2=N[C@@H](c3ccc(Cl)cc3)[C@@H](c3ccc(Cl)cc3)N2C(=O)N2CCNC(=O)C2)c(OC(C)C)c1 [Nutlin-3] + CCCCCCCCCCCC1=C(O)C(=O)C=C(O)C1=O [Embelin] (first compound 0.5 µM, partner dose 6 µM)",60.2%,102%,106%,85.8%,86.1%,61.8%,62.7%,75.5%,119%,
"Cn1c(=O)n(-c2ccc(C(C)(C)C#N)cc2)c2c3cc(-c4cnc5ccccc5c4)ccc3ncc21 + COCC[n+]1c2c(n(Cc3cnccn3)c1C)C(=O)c1ccccc1C2=O [YM155] (first compound 0.02 µM, partner dose 0.002 µM)",35.5%,37.1%,70.6%,36.4%,25.2%,63.1%,66.6%,70.2%,34.4%,70.7%
"COc1ccc(C2=N[C@@H](c3ccc(Cl)cc3)[C@@H](c3ccc(Cl)cc3)N2C(=O)N2CCNC(=O)C2)c(OC(C)C)c1 [Nutlin-3] + CC(C)CCN1c2nc(Nc3cc(F)c(O)c(F)c3)ncc2N(C)C(=O)C1C [BID1870] (first compound 0.5 µM, partner dose 1 µM)",46.7%,76.4%,80%,65.1%,71.4%,72%,98.8%,74.4%,70.8%,
"Cn1c(=O)n(-c2ccc(C(C)(C)C#N)cc2)c2c3cc(-c4cnc5ccccc5c4)ccc3ncc21 + O=C(O)C(=O)Nc1sc2c(c1C(=O)O)CCNC2 [TCS401] (first compound 0.02 µM, partner dose 8.33333 µM)",38.2%,71.3%,78.1%,67.4%,98.4%,100%,68.5%,60%,71%,
"COc1ccc(C2=N[C@@H](c3ccc(Cl)cc3)[C@@H](c3ccc(Cl)cc3)N2C(=O)N2CCNC(=O)C2)c(OC(C)C)c1 [Nutlin-3] + COC(=O)c1sccc1S(=O)(=O)Nc1ccc(Nc2ccccc2)cc1OC [GSK0660] (first compound 0.5 µM, partner dose 5 µM)",47.9%,86.4%,86.6%,70.6%,76.9%,82.2%,70.6%,69.9%,76.4%,
"Cn1c(=O)n(-c2ccc(C(C)(C)C#N)cc2)c2c3cc(-c4cnc5ccccc5c4)ccc3ncc21 + N#Cc1c(O)c2c(-c3ccc(-c4ccccc4O)cc3)csc2[nH]c1=O [A769662] (first compound 0.02 µM, partner dose 10 µM)",49.8%,73.6%,73%,71%,94%,81.5%,73.6%,81.2%,65.1%,
"CC(C)C[C@H](NC(=O)[C@H](Cc1ccccc1)NC(=O)c1cnccn1)B(O)O [Bortezomib] + O=C(Nc1ccccc1)c1cc([N+](=O)[O-])ccc1Cl [GW9662] (first compound 0.005 µM, partner dose 10 µM)",18.4%,28.7%,30.5%,29.4%,68%,52.2%,19.3%,24.7%,33.4%,
"COc1ccc(C2=N[C@@H](c3ccc(Cl)cc3)[C@@H](c3ccc(Cl)cc3)N2C(=O)N2CCNC(=O)C2)c(OC(C)C)c1 [Nutlin-3] + O=C(Nc1ccccc1)c1cc([N+](=O)[O-])ccc1Cl [GW9662] (first compound 0.5 µM, partner dose 10 µM)",51.7%,86.5%,94.9%,67.8%,71.6%,65%,66.6%,66.8%,85.2%,
"CC(C)C[C@H](NC(=O)[C@H](Cc1ccccc1)NC(=O)c1cnccn1)B(O)O [Bortezomib] + COc1cc(N2CCC(N3CCN(C)CC3)CC2)ccc1Nc1ncc(Cl)c(Nc2ccccc2S(=O)(=O)C(C)C)n1 [NVP-TAE684] (first compound 0.005 µM, partner dose 0.4 µM)",45.2%,38.8%,40.1%,31.4%,73.1%,78.4%,33.2%,19.9%,24.3%,
"Cc1cc(Nc2cc(N3CCN(C)CC3)nc(/C=C/c3ccccc3)n2)n[nH]1 + COc1ccc(COc2ccc(Cc3cnc(N)nc3N)cc2OC)cc1 [GW2580] (first compound 0.2 µM, partner dose 5 µM)",61%,88.6%,99.4%,63%,95.7%,77.4%,58.1%,74.6%,78.8%,
"CC(C)C[C@H](NC(=O)[C@H](Cc1ccccc1)NC(=O)c1cnccn1)B(O)O [Bortezomib] + COc1cc2ncnc(Nc3ccc(Oc4ccccc4)cc3)c2cc1OC [SrcI1] (first compound 0.005 µM, partner dose 10 µM)",38.1%,21.2%,30.8%,29.1%,80.5%,44.2%,38.3%,19%,27%,
"CC(C)C[C@H](NC(=O)[C@H](Cc1ccccc1)NC(=O)c1cnccn1)B(O)O [Bortezomib] + COc1cc(Nc2ncc(F)c(Nc3ccc4c(n3)NC(=O)C(C)(C)O4)n2)cc(OC)c1OC [Tamatinib] (first compound 0.005 µM, partner dose 2 µM)",30.7%,26.2%,28.6%,19.7%,63.8%,62.3%,15.5%,18.3%,32.3%,11.5%
"Cc1cn(-c2cc(NC(=O)c3ccc(C)c(Nc4nccc(-c5cccnc5)n4)c3)cc(C(F)(F)F)c2)cn1 [nilotinib] + COc1ccc(COc2ccc(Cc3cnc(N)nc3N)cc2OC)cc1 [GW2580] (first compound 1 µM, partner dose 5 µM)",82.4%,81.3%,81.7%,57.1%,110%,94.4%,85.1%,105%,70.9%,
"CC(C)C[C@H](NC(=O)[C@H](Cc1ccccc1)NC(=O)c1cnccn1)B(O)O [Bortezomib] + COC(=O)c1sccc1S(=O)(=O)Nc1ccc(Nc2ccccc2)cc1OC [GSK0660] (first compound 0.005 µM, partner dose 5 µM)",33.3%,33.7%,28.1%,28.4%,66.2%,72.9%,30.9%,19.2%,27.1%,
"Cc1cc(Nc2cc(N3CCN(C)CC3)nc(/C=C/c3ccccc3)n2)n[nH]1 + O=S(=O)(c1ccccc1)N(CC(F)(F)F)c1ccc(C(O)(C(F)(F)F)C(F)(F)F)cc1 [T0901317] (first compound 0.2 µM, partner dose 7 µM)",72.6%,76.7%,101%,85.7%,78.9%,78.5%,73.2%,99.5%,79.2%,
"Cn1c(=O)n(-c2ccc(C(C)(C)C#N)cc2)c2c3cc(-c4cnc5ccccc5c4)ccc3ncc21 + Cc1cc([N+](=O)[O-])ccc1NS(=O)(=O)c1cc(Cl)ccc1Cl [FH535] (first compound 0.02 µM, partner dose 5 µM)",41.9%,50.4%,69.5%,56.8%,74%,88.4%,60.6%,64.8%,60.5%,
"CC(C)C[C@H](NC(=O)[C@H](Cc1ccccc1)NC(=O)c1cnccn1)B(O)O [Bortezomib] + O=S(=O)(c1ccccc1)N(CC(F)(F)F)c1ccc(C(O)(C(F)(F)F)C(F)(F)F)cc1 [T0901317] (first compound 0.005 µM, partner dose 7 µM)",25.2%,32.5%,19.1%,20.4%,77%,60.9%,17.6%,21.4%,18.7%,
"Cn1c(=O)n(-c2ccc(C(C)(C)C#N)cc2)c2c3cc(-c4cnc5ccccc5c4)ccc3ncc21 + COc1cc2ncnc(Nc3ccc(Oc4ccccc4)cc3)c2cc1OC [SrcI1] (first compound 0.02 µM, partner dose 10 µM)",30%,42.8%,39.9%,47.7%,77.9%,34.4%,36.4%,52.4%,42.1%,
"COc1ccc(C2=N[C@@H](c3ccc(Cl)cc3)[C@@H](c3ccc(Cl)cc3)N2C(=O)N2CCNC(=O)C2)c(OC(C)C)c1 [Nutlin-3] + Oc1nc(-c2ccc(C(F)(F)F)cc2)nc2c1CSCC2 [XAV939] (first compound 0.5 µM, partner dose 10 µM)",71.5%,95.2%,105%,80.2%,72.8%,68.9%,88.3%,54.2%,109%,
